Assay results published in the RNAGym collection of RNA variant scans (doi:10.1093/nar/gkz1192).
The source gives no read counts; variants with many changes may rest on few reads.

B1: CPEB3 Ribozyme (parent)
chain: UAACAGGGGGCCACAGCAGAAGCGUUCACGUCGCAGCCCCUGUCAGAUUCUGGUGAAUCUGCGAAUUCUGCUGUAUAUCUC

Variants of: B1
Experiment: self-cleavage, relative activity (ratio to wild type); higher = more cleavage; in vitro, sequencing
In short: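 Relative activity compares each variant's cleaved/total read fraction with that of the unmutated ribozyme. To get these fractions, barcoded CPEB3 ribozyme libraries from rounds of error-prone PCR were transcribed with T7 RNA polymerase for 5 hours at 37°C and then given 15 min of DNase I treatment before EDTA was added. The RNAs were reverse transcribed with template switching and sequenced on Illumina, and DNA sequencing linked barcodes to variants. A minimum of 5 reads applied, and three batches were averaged.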

Variant	self-cleavage
A13G U49C U67A	0.15
A13G C34U U41C U58C U60C	0.24
A13G A15U U41A C62A	0.18
A13C U26A C39A U67C U74A	0.11
A13G A20U U69C U80C	0.1
A13G A28G A64U	0.18
A13G U60C U72G	0.19
A13G A35G A65G G70A	0.15
A13C C34A C44A U74C	0.24
A13G A15U G30A U31C C32G G33U A45U	0.07
A13G A20G U31G	0.31
A13G U26C U31C C59U A64G	0.17
A13G C39U U43C U60C U69A U78A	0.06
A13G U25C U26C C62U	0.07
A13G A45G U54C	0.74
A13C U43A G53A U72C	1.1
A13C U25A A56G U74C	0.1
A13G U60C U74C	0.32
A13G U60C U74G	0.7
A13G A20G U80C	0.75
A13G A15G U51A U54A U67C	0.11
A13G U48C U58C	0.52
A13G A18G A45G U49C U78C	0.26
A13C A20G G22A A28U U43C U54C U72G	0.1

Variant	self-cleavage
A13G A28G U41C	0.21
A13G A18G A35U A45G A47U	0.17
A13G A18C U41C	0.39
A13G C23A U25C U49C U69A	0.04
A13G A15G U78C	0.29
A13C G22A C23U U25C A77U U78C	0.09
A13G A28G U54C A64G	0.15
A13G U31C C37G C38G C44A	0.02
A13G U26C U60A U72C	0.44
A13G U26C A28G A75U	0.22
A13G G19C U43A A45U	0.08
A13G A28G A77U	0.46
A13G A18G A47U U54G U67C U72C	0.04
A13G A18U U49C U80A	0.34
A13G A21G A28U U43C U49A U80A	0.04
A13G A28G U67C U69C	0.06
A13G C23U U26C A57G	0.07
A13C A21C A35G G36A U48A C79U	0.13
A13G A18G U41A A56G U80C	0.45
A13G U26C U41G A56G	0.32
A13G A15U U60A U76C	0.19
A13G C14A G33A U51A U54C	0.22
A13G A47G U48G U72C	0.1
A13G U25A U60C	0.15

Variant	self-cleavage
A13G U31C U41C U49C A65G C79U	0.03
A13G C23G U58C G70A	0.07
A13G G16U A28G G61A	0.08
A13G U25A C37U A45G U58C	0.04
A13G U43A U51C G52U U60A	0.27
A13G U76C U78C	1.13
A13G A21U U80A	0.6
A13G A18U A21G U49A U54C	0.04
A13G U41C U48A	0.19
A13C A35C U43C A65G U69C	0.1
A13G A21C C62U	0.24
A13C A35G U43C U76A	1.26
A13G A20G U25G U43A U54A	0.06
A13G U41A A56G A64U	0.22
A13G A28U G42A U49C A56G U67C U78C	0.05
A13G A35G A56U A65G	0.18
A13G U25C U31C U43A G73A A77G	0.06
A13C U26C A57G A64U U67G	0.2
A13C C38U A45G	0.26
A13G U25C U26C A45G U74C	0.41
A13G A28G U58G	0.09
A13G A56G U72A	0.25
A13C U69A C79U	0.21
A13G U26G U74C	0.23

Variant	self-cleavage
A13G U58A U69A	0.13
A13G C23A U31A A45U A77U	0.1
A13G U43C U51A C62U U72C	0.12
A13G C23U U51C U66C U80C	0.1
A13C C14U U25C U67C C68U	0.22
A13G C27U A28U U41A U43C U72C	0.22
A13G A20G A47G G55U	0.48
A13G U31C U69C	0.12
A13G U67C G70A U80C	0.17
A13G U31C C44U	0.45
A13G A18G U41C U54C U74C A75G	0.17
A13G A15U C38U U58C U60C	0.1
A13C A35U C40A A45C A56G	0.12
A13G G63A A75G	0.69
A13G U25C A47U U69A	0.13
A13G C27U G53A	0.47
A13G U26A U41A U43A	0.1
A13C C29U C39G A45C G55A	0.05
A13G A45G U48C U54C U67C	0.24
A13G A20G C23U U26C U41A	0.36
A13G A18U A75G	0.21
A13G A20G G24A U43A U51A A65G	0.15
A13C A45U U49A A64G	0.13
A13G C62G A65U	0.11

Variant	self-cleavage
A13G C23U G52C U54C	0.2
A13G U26A A56G U72G	0.41
A13G A21G U54C C59G A77G	0.13
A13G A28G G33A C38A A64G U80A	0.06
A13G A28C A77G	0.38
A13G A57G U78C	0.64
A13G C23U U41A A64U U69C	0.14
A13G A35U U41A U54A A65G	0.17
A13G C23A U60C C79U	0.38
A13C A20C C39G A45U	0.15
A13G A20G A45G U78A	0.55
A13C A45G U51A A56G G63A A75U	0.27
A13G A47G U51A A57G A65G	0.18
A13G G24A U49C	0.18
A13G G30A U69C	0.15
A13G A21U U31C C39A	0.14
A13G A45G U80C	0.55
A13C C59A A65G	0.22
A13G A35G A77G	0.84
A13G A21G U26C U43C U48C C71U	0.14
A13C G36C U69C U72A	0.21
A13G U25C U41C A77U U78C	0.25
A13C U43A G53A C68A	0.53
A13G C38G U48C U80C	0.1

Variant	self-cleavage
A13G A15U A35U U41C U60C	0.07
A13G A28U A77G	0.77
A13G U43A A65G	0.49
A13G C32A U43C U67A U72C	0.07
A13G A18U U51C U60A	0.1
A13G U31A A47G	0.39
A13G U41A C62U U72G	0.11
A13G U25C C34U U54C	0.1
A13G U25C U41C U49C U66C	0.1
A13G A18U U74C	0.21
A13G A20G U69G	0.55
A13G U51A A57G U58C G63C A64G U78A	0.21
A13G U26A G36U A47U	0.06
A13G A56G U66C	0.06
A13C A21G G30A A64G U66C	0.21
A13G U43C A75U U80C	0.68
A13G U60C G70A U80A	0.21
A13G A20G A45U C50A	0.3
A13G A21U A28U A45G	0.18
A13G U51A U66C U67C	0.06
A13G C44A U80C	0.46
A13G A20U U31A G46A U49C U54G A57G	0.03
A13G A35G A57U	0.49
A13G G16A A45G A56G U80A	0.09

Variant	self-cleavage
A13G U25C A47G U54C G61A U69C U74C	0.37
A13G A18G U43C A45G U67A	0
A13G A20U A47G A75G	0.12
A13G A45G U51A A77G	0.35
A13G C23A U43A A45G A65G U66A U76C	0.05
A13G A21G A57G U58A U76C	0.18
A13G U25C C50U U51C U54C A56G	0.04
A13G A15G U25C U80C	0.51
A13G C23U U41A	0.13
A13G A28G C39A U66C G70A A75G	0.48
A13G A18G A21G U26C U41C	0.85
A13G U43C U72A	0.26
A13G G33U A45U	0.26
A13G U54A G61A U80C	0.63
A13G U58C U80C	0.43
A13G U58C U80A	0.4
A13C U25C A28G	0.31
A13C G42C U60C	0.08
A13G A21C U31A U51C	0.05
A13G A15G A18U U67G	0.29
A13C A28U U41A	0.27
A13G G30A U54C U66C U69C U72C U76A	0.13
A13G U25C U31C A47G A75U	0.16
